Laboratory results taken from PMC4336329 (PLoS ONE, 2015).
Out of some 310,000 compounds screened, about 2,200 (0.71%) showed an effect of 50% or more. Effects have a minus sign here. The list shows a part of the results.

target: human ether-à-go-go-related gene (hERG) potassium channel (human, UniProt Q12809); experiment: primary screen, population patch clamp on CHO cells stably expressing hERG
Sequence (Q12809 whole entry, looked up): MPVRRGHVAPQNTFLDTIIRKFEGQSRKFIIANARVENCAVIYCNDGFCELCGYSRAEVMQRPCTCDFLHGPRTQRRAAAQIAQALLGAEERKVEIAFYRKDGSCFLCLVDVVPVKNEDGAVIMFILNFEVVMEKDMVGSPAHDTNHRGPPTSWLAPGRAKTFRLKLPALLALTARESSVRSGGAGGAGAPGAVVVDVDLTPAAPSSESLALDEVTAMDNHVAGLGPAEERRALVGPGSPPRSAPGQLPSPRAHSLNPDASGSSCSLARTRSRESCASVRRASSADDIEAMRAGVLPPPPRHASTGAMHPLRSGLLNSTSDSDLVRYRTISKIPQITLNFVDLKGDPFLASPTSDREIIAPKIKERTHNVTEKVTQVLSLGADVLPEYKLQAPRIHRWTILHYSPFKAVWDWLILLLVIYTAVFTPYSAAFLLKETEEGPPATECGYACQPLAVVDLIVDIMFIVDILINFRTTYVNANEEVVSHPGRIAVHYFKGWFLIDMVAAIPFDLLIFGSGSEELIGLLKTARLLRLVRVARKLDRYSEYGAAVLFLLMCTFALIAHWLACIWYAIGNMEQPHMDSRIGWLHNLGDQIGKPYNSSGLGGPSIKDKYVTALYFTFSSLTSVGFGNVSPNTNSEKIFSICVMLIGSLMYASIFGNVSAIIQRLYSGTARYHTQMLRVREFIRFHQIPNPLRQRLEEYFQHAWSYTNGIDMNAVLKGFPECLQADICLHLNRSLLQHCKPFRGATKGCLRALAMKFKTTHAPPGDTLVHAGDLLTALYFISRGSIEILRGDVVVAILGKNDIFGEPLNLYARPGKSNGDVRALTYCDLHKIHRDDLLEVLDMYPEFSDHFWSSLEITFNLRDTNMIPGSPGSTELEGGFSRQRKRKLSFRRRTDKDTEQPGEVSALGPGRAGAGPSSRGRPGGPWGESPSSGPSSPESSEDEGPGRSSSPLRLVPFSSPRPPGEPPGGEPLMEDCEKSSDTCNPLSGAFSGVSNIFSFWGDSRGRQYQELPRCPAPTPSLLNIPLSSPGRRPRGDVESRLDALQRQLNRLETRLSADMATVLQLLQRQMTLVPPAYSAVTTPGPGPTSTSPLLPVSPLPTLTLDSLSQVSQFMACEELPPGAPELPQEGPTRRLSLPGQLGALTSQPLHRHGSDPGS

Row | Structure (SMILES) | hERG current change (%, negative = inhibition) at 1uM [%]
1 | COC(=O)CSc1nc(C)c(C(C)=O)cc1C#N | -6.22
2 | COc1cc(OC)cc(-c2nc3ccccc3c(=O)n2OC(=O)c2ccccc2C)c1 | 9.57
3 | CCOc1nc(NC(=O)NS(=O)(=O)c2cccc(Cl)c2)nc(-c2ccccc2)n1 | 9.07
4 | COc1cccc(/C(O)=C2/C(=O)C(=O)N(CCN(C)C)C2c2ccc(Br)cc2)c1 (stereo not shown) | 13.3
5 | O=C1COc2ccc(C(=O)CSc3nnc(Cc4cccs4)n3-c3ccccc3)cc2N1 | -32.7
6 | Cc1nn(C)cc1CN1CCCC(C(=O)c2ccc(-c3ccccc3)cc2)C1 (stereo not shown) | -6.4
7 | Cc1cccc(NC(=O)OC2CN3CCC2CC3)c1 (stereo not shown) | 11.5
8 | CCc1nn(CCCC(=O)NCc2ccc(C)cc2)c(=O)c2cc3occc3n12 | 6.61
9 | Brc1cc2c(cc1CSc1ncccn1)OCO2 | 11.7
10 | Nc1ccc(Oc2ccc(Br)cc2)cc1 | 7
11 | O=C(CN1CCN(c2cccc(Cl)n2)CC1)N1CC(O)CO1 (stereo not shown) | 18.6
12 | Cc1ccc(C)c(OCC(=O)Nc2ccc(S(=O)(=O)Nc3ccccn3)cc2)c1 | 11.5
13 | COc1ccc(S(=O)(=O)NC(C)C(=O)N2CCCC2)cc1Cl (stereo not shown) | 14.4
14 | CC(NC(c1ccccc1)c1ccccc1)C(=O)N1CCCc2ccccc21 (stereo not shown) | 9.67
15 | O=C1c2oc3ccccc3c(=O)c2C(c2cccc(Br)c2)N1Cc1ccco1 (stereo not shown) | -7.63
16 | O=C(C1CC1)N1CCc2cc(S(=O)(=O)NCCC3=CCCCC3)ccc21 | 12.3
17 | Cc1ccccc1-c1nc(Cc2ccccc2)no1 | 15.1
18 | O=C(COC(=O)CCc1nc2ccccc2s1)Nc1nc(-c2ccccc2)cs1 | 4.5
19 | CSc1ccc(CN(C)C(=O)C(Cc2ccccc2)NC(=O)c2ccccc2)cc1 (stereo not shown) | 8.17
20 | COc1ccc(C(C)=O)cc1CN(C)C.Cl | 16.2
21 | Cc1ccc(-c2cc(C(=O)N3CCN(c4ccc(F)cc4)CC3)c3ccccc3n2)o1 | 5.27
22 | CCN(CC)S(=O)(=O)c1ccc(-c2cn3cc(Cl)ccc3n2)cc1 | 6.26

Row | Structure (SMILES) | hERG current change (%, negative = inhibition) at 1uM [%]
23 | Oc1ccccc1C=NC1CCCCC1N=Cc1ccccc1O (stereo not shown) | 18
24 | Brc1cc2c(cc1Br)OCCOCCOCCOCCO2 | -38.2
25 | O=Cc1cccn1Cc1ccc(Cl)cc1Cl | 1.4
26 | CC(=O)N(C)c1ccc(C(O)(C(F)(F)F)C(F)(F)F)cc1 | 12.5
27 | COc1ccc(CNC(=O)C2CCN(c3cc(C(=O)Nc4cccc(OC)c4)ccn3)CC2)cc1 | -6.86
28 | Cc1nc(-n2nnc3cc(C)c(C)cc32)c2c3c(sc2n1)CCCC3 | 2.21
29 | CC(C)CCN(CCC(C)C)C(=O)Cc1c(O)c2ccccc2[nH]c1=O | 8.87
30 | CCOc1ccccc1N(CC(=O)NCc1ccc(OC)cc1)S(C)(=O)=O | 3.96
31 | COc1cccc(CN(C(=O)c2ccco2)C(C(=O)NC2CCCC2)c2cccnc2)c1 (stereo not shown) | 9.48
32 | COC(=O)N/N=C(\C)c1ccc(-n2ccnc2)cc1 | 15.5
33 | O=[N+]([O-])c1cc(Cl)ccc1NCCNc1ncc(C(F)(F)F)cc1Cl | 3.79
34 | O=C(COC(=O)C1CSC2(c3ccc(F)cc3)CCC(=O)N12)NC(=O)NC1CCCC1 (stereo not shown) | 9.7
35 | CC(=O)N1CCN(c2ccc(NC(=O)c3ccco3)cc2Cl)CC1 | 6.51
36 | CCC(=O)Nc1ccc(Cl)c(NC(=O)c2ccc([N+](=O)[O-])cc2)c1 | 11.7
37 | COc1ccccc1N1CCN(C(=O)c2ccc(CN3CCc4ccccc4C3)cc2)CC1 | 9.69
38 | CCc1cccc(NC(=O)Cn2cccc2)c1 | -3.81
39 | CCOC(=O)c1ccc(NC(=O)Nc2ccc3c4c(cccc24)C(=O)N3CC)cc1 | 12.5
40 | CN(C)CC/C=C1/c2ccccc2Sc2ccc(Cl)cc21.Cl | -16.4
41 | CCOC(=O)C1CCCN(c2c(C(=O)c3ccccc3)cnc3ccccc23)C1 (stereo not shown) | 12.2
42 | Cc1[nH]c2ccc(F)cc2c1CCN(Cc1ccncc1)C(=S)Nc1cccc(F)c1 | 8.53
43 | COc1c(Cl)cc(Cl)cc1C(=O)Nc1ccccc1N1CCN(C(C)=O)CC1 | 11.2
44 | O=C(CSc1ncn[nH]1)Nc1nc(-c2ccccc2)cs1 | 6.6

Row | Structure (SMILES) | hERG current change (%, negative = inhibition) at 1uM [%]
45 | CC(CNC(=O)CN1C(=O)c2cccnc2Oc2ccc(Cl)cc21)c1ccccc1 (stereo not shown) | 14.1
46 | O=C(O)C1CCCN(S(=O)(=O)Cc2ccccc2)C1 (stereo not shown) | 7.9
47 | Cc1ccc(S(=O)(=O)NCCC(=O)Oc2ccc3ccc(=O)oc3c2)cc1 | 5.43
48 | C=CCNC(=O)CSc1nnc(-c2ccncc2)n1CCc1ccccc1 | 4.61
49 | O=C(Nc1ccccc1C(=O)Nc1ccncc1)c1ccc([N+](=O)[O-])cc1 | 11.9
50 | COC(=O)c1cc(OC)c(OC)cc1NC(=O)c1cccc(C)c1 | 8.73
51 | CC(C)(C)NC(=O)CC(c1ccccc1)c1ccccc1O (stereo not shown) | 15.1
52 | C=CCOc1cccc(/C=C2\C(=O)N(Cc3ccc(C)cc3)C(C)=C2C(=O)OC)c1 | 11.6
53 | Cc1cc(C(=O)N2CCN(C/C=C/c3ccccc3)CC2)no1 | -5.15
54 | Cl.N=c1sccn1CC(=O)NCc1ccc(Cl)cc1Cl | 7.91
55 | COc1ccc(NC(=O)CN2CCCCC2)cc1.O=C(O)C(=O)O | 10.6
56 | OCc1nc2ccccc2n1CCCOc1ccccc1 | -0.689
57 | CCOC(=O)N1CCC(NC(=O)CSCc2nc(-c3ccc(OC)c(OC)c3)oc2C)CC1 | 12.2
58 | NC(=O)CSCc1cccc(Br)c1 | 14
59 | NS(=O)(=O)c1cccc(NC(=O)CSc2n[nH]c(-c3cccs3)n2)c1 | 3.46
60 | CN(C)C=O.N#Cc1ccccc1OCC(=O)OCC(=O)c1ccc2c(c1)NC(=O)CO2 | 11.6
61 | Cc1ccc(Cn2nc(C)c(C(=O)NCC(c3ccc(F)cc3)N3CCOCC3)c2Cl)cc1 (stereo not shown) | 3.02
62 | NCCCC[C@@H]1NC(=O)c2cc([N+](=O)[O-])cc(I)c2SC[C@@H](C(N)=O)NC(=O)[C@H](CCC(N)=O)NC1=O | 19.9
63 | CC1CCCCN1C(=O)CSc1nc(N)cc(=O)[nH]1 (stereo not shown) | 13.4
64 | O=C(c1cccc([N+](=O)[O-])c1)N1CCN(Cc2ccc3c(c2)OCO3)CC1 | 3.14
65 | O=C(CN1CCCc2ccccc21)NC(=O)NCc1ccccc1 | 9.1
66 | CC(C)(O)C#Cc1ccc(CN2CCCC(CO)(Cc3cccc(Cl)c3)C2)cc1 (stereo not shown) | -7.53

Row | Structure (SMILES) | hERG current change (%, negative = inhibition) at 1uM [%]
67 | CCOC(=O)Cc1nn(Cc2nc(-c3ccc(C#N)cc3)cs2)c(=O)c2ccccc12 | -4.66
68 | Cc1ccc(NC(=O)CN2CCCC2)cc1.Cl | 17.9
69 | CCOC(=O)C1=C(C)NC2=C(C(=O)CC(C)(C)C2)C1c1ccsc1 (stereo not shown) | 9.2
70 | COc1ccc(C(=O)NCCNC(=O)c2ccccn2)cc1 | 17.2
71 | CC[C@@H](Nc1ncnc2c1oc1ccccc12)C(=O)O | 5.98
72 | O=C1CCCC/C1=C/Nc1ccc(S(=O)(=O)Nc2ncccn2)cc1 | 4.37
73 | O=C1CC(c2ccccc2Oc2cccc(Cl)c2)C(n2cncn2)C(=O)C1C1NCCc2ccccc21 (stereo not shown) | 4.67
74 | Nc1ccc(Oc2ccc3nc(-c4ccccc4)c(-c4ccccc4)nc3c2)cc1 | 3.57
75 | Cc1ccc2nc(NC(=O)C3CCCN(S(=O)(=O)c4cccc5nsnc45)C3)sc2c1 (stereo not shown) | 11.6
76 | Clc1ccc(-n2nnc(-c3cccnc3)n2)cc1Cl | -32.7
77 | O=C(COC(=O)CCCOc1ccc(Cl)cc1Cl)NCc1ccc(F)cc1 | 7.81
78 | COC(=O)Cc1ccc(NC(=O)c2ccccc2Br)cc1 | 13.6
79 | O=C(Nc1sc2c(c1C(=O)O)CCCCC2)c1cccs1 | 23.2
80 | CCOC(=O)/C(C#N)=C/c1cn(CCOc2ccccc2)c2ccccc12 | 12.8
81 | CN1CCN(C(=O)c2cc3sc4ccccc4c3s2)CC1 | 12.7
82 | Cc1csc(NC(=O)c2ccc3ccccc3n2)n1 | 10.2
83 | COc1cc(Cl)c(S(=O)(=O)n2cnc(C)c2)cc1Cl | 0.732
84 | CC1(C)NC(=O)N(CC(=O)NNC(=O)c2ccccc2F)C1=O | 12
85 | COc1cccc(NC(=O)CCC(=O)NCc2ccco2)c1 | 14.9
86 | O=S(=O)(c1ccc(F)cc1)N1CCC2(CC1)OCCO2 | 12
87 | O=C(CCSCc1ccccc1F)NCc1cccnc1 | 16
88 | COc1ccc(S(=O)(=O)CCC(=O)N2CCN(c3ccc(C(C)=O)cc3)CC2)cc1 | -3.87
